Experimental data taken from article PMC3314968.
These are yes or no findings as the source states them, for the method shown. Binding seen in cells or lysates may run through a third protein. Some results given as binding are weak or reduced against the parent protein; the word gives no strength. For some assays here: Where a sequence is shown, tags or fusion partners need not be part of it.

Sequences of proteins named here, by UniProt entry; tags and fusion partners are left off. A change or cut given only in a name is not applied to a line headed by its entry.
UniProt Q8NEZ2: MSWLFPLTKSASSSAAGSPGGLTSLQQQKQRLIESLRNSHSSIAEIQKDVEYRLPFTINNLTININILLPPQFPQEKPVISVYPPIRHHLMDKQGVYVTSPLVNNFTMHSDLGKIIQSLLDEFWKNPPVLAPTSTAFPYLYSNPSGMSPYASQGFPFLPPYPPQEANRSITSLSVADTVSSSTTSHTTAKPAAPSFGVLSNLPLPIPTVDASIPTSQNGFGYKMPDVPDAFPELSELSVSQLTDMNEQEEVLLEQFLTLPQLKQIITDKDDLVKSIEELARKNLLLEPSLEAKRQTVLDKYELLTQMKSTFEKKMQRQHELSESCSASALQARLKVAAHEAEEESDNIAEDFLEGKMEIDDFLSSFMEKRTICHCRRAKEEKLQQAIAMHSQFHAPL

Columns and labels:
GST-TSG101 (human) = GST-TSG101 (human) (UniProt Q99816); assay: pull-down; 293T cells transfected with GST-TSG101, Myc-VPS28, HA-VPS37A and HA-UBAP1 (WT or M1 to M4); glutathione-coated beads; western blot with anti-HA
[1] = molecular target: T1, UBAP1-His6, full-length human UBAP1 (ubiquitin associated protein 1) (human) (UniProt Q9NZ09); assay: pull-down + SEC; subunits coexpressed in E. coli from a polycistronic vector; complex purified by affinity chromatography (C-terminal His6 on UBAP1) and gel filtration (HiLoad 16/60 Superdex 200); Coomassie-stained SDS-PAGE of the peak
T1 sequence: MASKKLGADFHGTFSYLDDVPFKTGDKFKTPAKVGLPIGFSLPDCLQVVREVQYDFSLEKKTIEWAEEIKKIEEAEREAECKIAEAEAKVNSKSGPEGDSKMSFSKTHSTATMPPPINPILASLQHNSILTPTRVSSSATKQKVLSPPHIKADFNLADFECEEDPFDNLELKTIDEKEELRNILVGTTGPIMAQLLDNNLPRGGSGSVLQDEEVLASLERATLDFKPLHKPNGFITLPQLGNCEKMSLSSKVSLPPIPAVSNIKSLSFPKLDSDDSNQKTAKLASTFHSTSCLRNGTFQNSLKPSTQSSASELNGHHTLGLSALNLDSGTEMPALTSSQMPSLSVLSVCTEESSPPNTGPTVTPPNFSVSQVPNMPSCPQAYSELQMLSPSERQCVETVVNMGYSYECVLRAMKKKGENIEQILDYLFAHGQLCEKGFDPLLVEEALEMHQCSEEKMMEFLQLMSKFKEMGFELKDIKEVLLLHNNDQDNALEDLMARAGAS

[2] = molecular target: T2, UBAP1 (1-77)-His6 (human) (UniProt Q9NZ09); assay: as above
T2 sequence: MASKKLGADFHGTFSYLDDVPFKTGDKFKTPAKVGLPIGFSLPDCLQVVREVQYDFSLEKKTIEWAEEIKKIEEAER

[3] = molecular target: T3, UBAP1 (1-68)-His6 (human) (UniProt Q9NZ09); assay: as above
T3 sequence: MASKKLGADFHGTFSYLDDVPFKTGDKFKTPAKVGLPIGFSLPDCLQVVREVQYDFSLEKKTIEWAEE

[4] = molecular target: T4, UBAP1 (1-92)-His6 (human) (UniProt Q9NZ09); assay: as above
T4 sequence: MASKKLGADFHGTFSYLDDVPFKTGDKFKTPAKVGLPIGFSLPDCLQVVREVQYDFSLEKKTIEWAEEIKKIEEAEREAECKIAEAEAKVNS

[5] = molecular target: One-Strep tagged TSG101 (OSHA-TSG101) (human) (UniProt Q99816); assay: pull-down; lysate of cells stably expressing OSHA-TSG101 at endogenous levels; affinity purification on a Strep-Tactin matrix; western blot with anti-TSG101, anti-VPS37A and anti-UBAP1; empty vector (OSHA) cells as control
GST-UBAP1 (human) = molecular target: T5, GST-UBAP1 (human) (UniProt Q9NZ09); assay: pull-down; GST fusions overexpressed in 293T cells, purified with glutathione beads; endogenous TSG101 detected (Figure S1C)
T5 sequence: T1 sequence

binding [1] | binding [2] | binding [3] | binding [4] | Substance | other results
 |  |  |  | HA-VPS37A (from UniProt Q8NEZ2 1-397) | binding (GST-TSG101 (human)): binds
binds | binds | binds | binds | TSG101 (198-390) (from UniProt Q99816 198-390) (domain or fragment) | 
binds | binds | binds | binds | VPS37A (229-397) (from UniProt Q8NEZ2 229-397) (domain or fragment) | 
 |  |  |  | VPS37A of the OSHA-TSG101 cell line (from UniProt Q8NEZ2 1-397) | binding [5]: binds
 |  |  |  | endogenous TSG101 of 293T cells (from UniProt Q99816 1-390) | binding (GST-UBAP1 (human)): binds
